Results on 81 sequences are retold here after article PMC6602471.

The other results are listed elsewhere or left out. At the low end of the ranking, values are background and their order means little.

This experiment has as its target T1, ETS1 (UniProt P14921).
T1 sequence: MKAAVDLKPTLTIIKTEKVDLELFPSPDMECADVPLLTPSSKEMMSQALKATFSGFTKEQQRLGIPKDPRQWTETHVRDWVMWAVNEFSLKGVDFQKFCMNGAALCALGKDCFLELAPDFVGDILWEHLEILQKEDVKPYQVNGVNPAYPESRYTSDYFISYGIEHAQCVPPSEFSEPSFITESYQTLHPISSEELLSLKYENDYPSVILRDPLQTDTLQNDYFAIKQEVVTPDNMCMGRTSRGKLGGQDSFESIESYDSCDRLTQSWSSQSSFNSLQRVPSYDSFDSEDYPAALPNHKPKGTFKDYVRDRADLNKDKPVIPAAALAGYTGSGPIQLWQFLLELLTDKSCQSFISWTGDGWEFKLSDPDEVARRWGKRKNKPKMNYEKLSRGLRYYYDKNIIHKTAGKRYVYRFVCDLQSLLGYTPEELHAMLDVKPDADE
Description: custom PBM. Particulars: custom protein-binding microarray; buffer, salt, pH and temperature not stated; high values mean tight binding; double strand, one strand shown.
Consider “GCTGATGCGGTGCATACCCCACCGGATGTGACCCCGGTCTTGATTCGCTTGACGCTGCTG”, for which the binding signal (log fluorescence intensity) worked out at 10.2. Take “CGGAATTGTCGTAAACGTCGGATATCCGGTTCTTCTGTCTTGATTCGCTTGACGCTGCTG”: the binding signal (log fluorescence intensity) was found to be 12.2. Regarding “TGTCGGGTAAGGGAAAGTAGATCACGTGAATGAAAAGTCTTGATTCGCTTGACGCTGCTG”, the binding signal (log fluorescence intensity) was 8.16.

For “CGGAAGTGTCGTAAACGTCGTATATCCGGTTCTTCTGTCTTGATTCGCTTGACGCTGCTG”, the binding signal (log fluorescence intensity) was 11.8. With “GATTAATTTCTGGCCTTATTCGCACGTGCCATAACAGTCTTGATTCGCTTGACGCTGCTG” the figure was 8.09.

On to “GATTAATTTCTGCCCTTATTCGCACGTGCCCTAACAGTCTTGATTCGCTTGACGCTGCTG”, for which the binding signal (log fluorescence intensity) is 8.12. As for “GTGTATAGGGTCCCATCCAACACACGTGTTAAAATGGTCTTGATTCGCTTGACGCTGCTG”, the figure is 8.3; as for “TACTGACTTATATATGCGAATGCACATGATTAGACCGTCTTGATTCGCTTGACGCTGCTG”, 8.14; as for “TAAAGGGAAGACGGTTGTGGTAGTTCCGTGTATTAAGTCTTGATTCGCTTGACGCTGCTG”, 8.27. Consider “GCTACTGCGGTGCATACCCCACCGGATGTGACCCCGGTCTTGATTCGCTTGACGCTGCTG”, for which the binding signal (log fluorescence intensity) came to 10.1.

With “GCTGCTGCGGTGCATACCCCACGGGATGTGACCCCGGTCTTGATTCGCTTGACGCTGCTG”, the binding signal (log fluorescence intensity) came to 8.14.

For the sequence “TCCGGCTACCAGCTCCACCCACCTCAGGCCTTGTAGGTCTTGATTCGCTTGACGCTGCTG”, the binding signal (log fluorescence intensity) worked out at 8.07. With “GCTTAATTTCTGCCCTTATTCGCACGTGCCATAACAGTCTTGATTCGCTTGACGCTGCTG” the figure was 8.29. As for “GCTGCTGCGGTGCATACCCCACCGGATGTGACCGCGGTCTTGATTCGCTTGACGCTGCTG”, the figure is 10.5. Turning to “GATTAATTTCTGCCCTTATTCGCACGTGACATAACAGTCTTGATTCGCTTGACGCTGCTG”, the binding signal (log fluorescence intensity) was determined as 8.18. For the sequence “TCCGGCTACCAGCTCCACCCACTTCAGGCCTTGTAGGTCTTGATTCGCTTGACGCTGCTG”, the binding signal (log fluorescence intensity) is 8.36.

As to “TAAAGGGAAGACGGTTGTGGTAGTTCCGGGTATCAAGTCTTGATTCGCTTGACGCTGCTG”, the binding signal (log fluorescence intensity) amounted to 8.76.

On to “TAAAGGGAAGACGGTTGTGGTAGTTCCGGATATTAAGTCTTGATTCGCTTGACGCTGCTG”, for which the binding signal (log fluorescence intensity) was 8.8. With “TGTCGGGTAAGGGAATGTTGATCACGTGAATGAAAAGTCTTGATTCGCTTGACGCTGCTG”, the binding signal (log fluorescence intensity) is 8.32. Turning to “CTGGGACTTCACCCAACTCTGCCACGTGGGTCGTTTGTCTTGATTCGCTTGACGCTGCTG”, the binding signal (log fluorescence intensity) stood at 8.06. “CGGAAGTGTCGTAAACGTCGGATATCCGGTACTTCTGTCTTGATTCGCTTGACGCTGCTG”: the binding signal (log fluorescence intensity) was found to be 11.8. “CACAATTTTTACAGTAATGTAGCACGCGTAACGCCTGTCTTGATTCGCTTGACGCTGCTG”: the binding signal (log fluorescence intensity) worked out at 8.14.

Take “CACAATTTTTACAGTAATGTAGCACGCGTAACTCATGTCTTGATTCGCTTGACGCTGCTG”: the binding signal (log fluorescence intensity) was 8.24. As for “GGAAAAAGGCCCAGGGTAATACCGGAAGTGGGCTTAGTCTTGATTCGCTTGACGCTGCTG”, the figure is 12. For the sequence “TACTGACTTATACATGCGAATGCACATGAATAGACCGTCTTGATTCGCTTGACGCTGCTG”, the binding signal (log fluorescence intensity) is 8.23. As for “CGGAAGTTTCGTAAACGTCGGATATCCGGTTCTTCTGTCTTGATTCGCTTGACGCTGCTG”, the binding signal (log fluorescence intensity) was determined as 11.6. “CACAGTTTTTACAGTAATGTAGCACGCGTAACTCCTGTCTTGATTCGCTTGACGCTGCTG”: the binding signal (log fluorescence intensity) was 8.32. With “GCTGCTGCGGTGCATACCCCACCGAATGTGACCCCGGTCTTGATTCGCTTGACGCTGCTG” the figure was 8.2; with “GGTTAATTTCTGCCCTTATTCGCACGTGCCATAACAGTCTTGATTCGCTTGACGCTGCTG”, 8.12; with “TACTGTCTTATATATGCGAATGCACATGAATAGACCGTCTTGATTCGCTTGACGCTGCTG”, 8.29. On to “GATTAATTTCTGCCCCTATTCGCACGTGCCATAACAGTCTTGATTCGCTTGACGCTGCTG”, for which the binding signal (log fluorescence intensity) worked out at 8.37. Take “CGGAAGTGTCGTAAACGTCGGATATCCTGTTCTTCTGTCTTGATTCGCTTGACGCTGCTG”: the binding signal (log fluorescence intensity) was determined as 10.1.

With “CACAATTTTTACAGTAATGGAGCACGCGTAACTCCTGTCTTGATTCGCTTGACGCTGCTG”, the binding signal (log fluorescence intensity) was found to be 8.32. On to “TGTCGGGCAAGGGAATGTAGATCACGTGAATGAAAAGTCTTGATTCGCTTGACGCTGCTG”, for which the binding signal (log fluorescence intensity) came out at 8.27. Take “GGAAAAATGCCCAGGGTAACACCGGAAGTGGGCTTAGTCTTGATTCGCTTGACGCTGCTG”: the binding signal (log fluorescence intensity) was found to be 12.1. As for “CGGAAGTGTCGTAAACGTCGGATATCCGGTTCGTCTGTCTTGATTCGCTTGACGCTGCTG”, the binding signal (log fluorescence intensity) is 11.9. As for “CAGCATAGGACTTCTTCCCTGAAGCAATTGATAAACGTCTTGATTCGCTTGACGCTGCTG”, the figure is 8.31. Take “GATTAATTTCTGCCCTTATGCGCACGTGCCATAACAGTCTTGATTCGCTTGACGCTGCTG”: the binding signal (log fluorescence intensity) was 8.04. As for “CTAGGACTTGACCCAACTCTGCCACGTGGGTCGTTTGTCTTGATTCGCTTGACGCTGCTG”, the figure is 8.03.

For “GGAAAAAGGCCCAGGGTAACACCGGAAGTGAGCTTAGTCTTGATTCGCTTGACGCTGCTG”, the binding signal (log fluorescence intensity) stood at 11.9. Regarding “GATTAATTTCTGCCCTTATTCGCACGCGCCATAACAGTCTTGATTCGCTTGACGCTGCTG”, the binding signal (log fluorescence intensity) is 8.16. With “CTGGGACTTGACCCAACTCTGCCACGTCGGTCGTTTGTCTTGATTCGCTTGACGCTGCTG” the figure was 8.15; with “TAAAGGAAAGACGGTTGTGGTAGTTCCGGGTATTAAGTCTTGATTCGCTTGACGCTGCTG”, 8.77.

Consider “GGAAAAAGGCCCAGGGTAACACCGGATGTGGGCTTAGTCTTGATTCGCTTGACGCTGCTG”, for which the binding signal (log fluorescence intensity) came out at 11. With “CAGCATAGGACTTCTTCCCTGAAGCAATTGACAACCGTCTTGATTCGCTTGACGCTGCTG” the figure was 7.96; with “TACTGACTTATATATGCAAATGCACATGAATAGACCGTCTTGATTCGCTTGACGCTGCTG”, 8.22; with “CACAATTTTTACATTAATGTAGCACGCGTAACTCCTGTCTTGATTCGCTTGACGCTGCTG”, 8.25. As for “GTGGATAGGATCCCATCCAACACACGTGTTAAAATGGTCTTGATTCGCTTGACGCTGCTG”, the figure is 8.28; as for “CTCAATTTTTACAGTAATGTAGCACGCGTAACTCCTGTCTTGATTCGCTTGACGCTGCTG”, 8.39. For “TGTCGGGTAAGGGAATGTAGATCACGTGTATGAAAAGTCTTGATTCGCTTGACGCTGCTG”, the binding signal (log fluorescence intensity) is 8.19. As for “TCCGGCTACCAGCTCCACCCACTTCAGGCCCTGTAGGTCTTGATTCGCTTGACGCTGCTG”, the figure is 8.19. With “GATTAATTTCTGCCCTTTTTCGCACGTGCCATAACAGTCTTGATTCGCTTGACGCTGCTG” the figure was 8.42; with “TGTCGGGTAAGGGAATGTAGATCACGTGAATGCAAAGTCTTGATTCGCTTGACGCTGCTG”, 8.38; with “TCCGGCTACCAGCTCCACCCACTTCAGGCCTTTTAGGTCTTGATTCGCTTGACGCTGCTG”, 8.35. “GGAAAAAGTCCCAGGGTAACACCGGAAGTGGGCTTAGTCTTGATTCGCTTGACGCTGCTG”: the binding signal (log fluorescence intensity) was found to be 12.1.

For “GTGTATAGGATCCCATCCAGCACACGTGTTAAAATGGTCTTGATTCGCTTGACGCTGCTG”, the binding signal (log fluorescence intensity) was 8.27. As for “TAAAGGGAAGACGGTTGTGGTAGTTCCGGGTATTCAGTCTTGATTCGCTTGACGCTGCTG”, the binding signal (log fluorescence intensity) came out at 8.52. As for “CAGCATAGGACTTCTTCCCTGAAGCAATCGATAACCGTCTTGATTCGCTTGACGCTGCTG”, the figure is 8.4; as for “CGGAAGTGTCGTCAACGTCGGATATCCGGTTCTTCTGTCTTGATTCGCTTGACGCTGCTG”, 11.8. With “TGTCGGGTAAGGGAATGGAGATCACGTGAATGAAAAGTCTTGATTCGCTTGACGCTGCTG” the figure was 8.16; with “GATTAATTTCTGCCCTTATTCGCACGTGCCATAAGAGTCTTGATTCGCTTGACGCTGCTG”, 8.21; with “GCTCCTGCGGTGCATACCCCACCGGATGTGACCCCGGTCTTGATTCGCTTGACGCTGCTG”, 10.2. As for “GCTGCTGCGGTGCATACCCCACCGGATGTGACCCCGGTCTTGATTCGCTTGACGCTGCTG”, the figure is 10.2; as for “CACAATTTTTACAGTAATGTAGCACGCGGAACTCCTGTCTTGATTCGCTTGACGCTGCTG”, 8.35. As for “GTGTATAGCATCCCATCCAACACACGTGTTAAAATGGTCTTGATTCGCTTGACGCTGCTG”, the binding signal (log fluorescence intensity) is 8.58.

For the sequence “ACTGCTGCGGTGCATACCCCACCGGATGTGACCCCGGTCTTGATTCGCTTGACGCTGCTG”, the binding signal (log fluorescence intensity) came to 10.4. “TAAAGGGAAGACGGTTGTGGTAGTTCCGGTTATTAAGTCTTGATTCGCTTGACGCTGCTG”: the binding signal (log fluorescence intensity) was 9.95. As for “GGAAAAAGGCCCAGGGTAACACCGGAAGTGGGTTTAGTCTTGATTCGCTTGACGCTGCTG”, the figure is 12. “CAGAATTTTTACAGTAATGTAGCACGCGTAACTCCTGTCTTGATTCGCTTGACGCTGCTG”: the binding signal (log fluorescence intensity) turned out to be 8.28. For the sequence “GTGTACAGGATCCCATCCAACACACGTGTTAAAATGGTCTTGATTCGCTTGACGCTGCTG”, the binding signal (log fluorescence intensity) was 8.4. On to “TAAAGGGAAGACGGTTGTGGTAGTACCGGGTATTAAGTCTTGATTCGCTTGACGCTGCTG”, for which the binding signal (log fluorescence intensity) was found to be 8.12. With “GATTAATTTCTGCCCTTATTCGCACTTGCCATAACAGTCTTGATTCGCTTGACGCTGCTG” the figure was 8.03. With “GGAAAAAGGCCCATGGTAACACCGGAAGTGGGCTTAGTCTTGATTCGCTTGACGCTGCTG” the figure was 11.9; with “GGAAAAAGGCCCAGGGTAACACCGGAAGTCGGCTTAGTCTTGATTCGCTTGACGCTGCTG”, 11.5.

For the sequence “CAGCATAGGACTTCTTGCCTGAAGCAATTGATAACCGTCTTGATTCGCTTGACGCTGCTG”, the binding signal (log fluorescence intensity) stood at 8.16. Take “TGTCGGGTAAGGGAATGTAGGTCACGTGAATGAAAAGTCTTGATTCGCTTGACGCTGCTG”: the binding signal (log fluorescence intensity) was determined as 8.19. In the case of “TGTCGGGTAAGGGAATGTAGATCACGTGAATGAAAAGTCTTGATTCGCTTGACGCTGCTG”, the binding signal (log fluorescence intensity) turned out to be 8.22. As for “GCTGCTGCGGTGCATACCGCACCGGATGTGACCCCGGTCTTGATTCGCTTGACGCTGCTG”, the figure is 10.3. “GCTGCTGCGGTGCTTACCCCACCGGATGTGACCCCGGTCTTGATTCGCTTGACGCTGCTG”: the binding signal (log fluorescence intensity) is 10.3. In the case of “GGAAAAAGGCTCAGGGTAACACCGGAAGTGGGCTTAGTCTTGATTCGCTTGACGCTGCTG”, the binding signal (log fluorescence intensity) was determined as 11.8. Regarding “CTGAAGTGTCGTAAACGTCGGATATCCGGTTCTTCTGTCTTGATTCGCTTGACGCTGCTG”, the binding signal (log fluorescence intensity) was found to be 11.8.
